The other results are listed elsewhere or left out.

Sequences and labels used below:
B1: 18382297_18383710_1157_CDS_ENSG00000243156_ENST00000441493|human|control|control (ssRNA)
RNA: GGGAGUUCUACAGUCCGACGAUCGUUCUCCAAGUCAAUACCUGUGGCUUCCCUCAGUUCCUGGAAAAAUUUUUGGUUGAAUAUAAAAGCCACACCACUGAUCUCUUCCACUUUAGCUUCUGCUGUUGUAUUUCGGUUGAUAAACAACAGAGGAUUGAGCAUCA
B2: chr15:98781125:98781126:-_ENSMUSG00000072235_ENSMUST00000097014|mus_hu|FALSE|FALSE (ssRNA)
RNA: GGGAGUUCUACAGUCCGACGAUCAACAUUCAGGGCUCCAUCAAAUCUCAGGGAAGCAGUGAUGGAGGACACAAUUUGACCUAUUAACCUAUUCAGGUUAGUAUAGGUUGGACGCUCAAUAUCGAGGUUUCUACGACAGAUGUCCAACAGAGGAUUGAGCAUCA
B3: 66266372_66266492_4502_CDS_ENSMUSG00000038664_ENSMUST00000042824|mouse|control|control (ssRNA)
RNA: GGGAGUUCUACAGUCCGACGAUCAGAGGCACUCACAGAAGGCUGCUGUAACUGCCCUUCUUCCCUUCGCUUCUGAAGCUCAUCAAUCACAGGACUUACUCCUAAUAUUAGGAGCGCACAGCGGUGGAUCACAGAGUUGCAGGCCAACAGAGGAUUGAGCAUCA
B4: 28027135_28027255_379_3pUTR_ENSMUSG00000063632_ENSMUST00000079063|mouse|control|control (ssRNA)
RNA: GGGAGUUCUACAGUCCGACGAUCCGACGCCGUCUUGCACCAGUCCGGGUCGCUCUCGUCCAGGGCCACCGGGCUGCACGCCAUGAACUCGCCCUCCUCGGUGUCCAGCGCGUCCCGGGGCAGGUUGCUCUCGGCUUCCGAGCUCAACAGAGGAUUGAGCAUCA
B5: 3367318_3367438_2247_3pUTR_ENSMUSG00000020668_ENSMUST00000020999|mouse|control|control (ssRNA)
RNA: GGGAGUUCUACAGUCCGACGAUCCUCACUCACAAGGCUGCGGUCAUCCUGGAUGGCAGCCUUCUCCUCCUCCAGCCGUUCCUUCUGGUCCUGCAGGUAAUUCUCCAUGUUCUUCUCCAAAGCUGCCUCCAAGAUGGGCUGGGGCAACAGAGGAUUGAGCAUCA
B6: chr15:3987131:3987132:+_ENSMUSG00000022186_ENSMUST00000110690|mus_mus|motif|central (ssRNA)
RNA: GGGAGUUCUACAGUCCGACGAUCCCCUGCAUUGUUGCUGACUGCAGUUAGAUCUUUUACUCCAGUCUUCAGUAAAGCUCCGGUAAGAUUCUCUGGAAUACCACACAGCCCAAAACCACCAACCAGCAAGGUUGCACCAUUAGGCAACAGAGGAUUGAGCAUCA

The test concerns the target T1, UNK ZnF1-3 (human, UniProt Q9C0B0 31-174).
T1 sequence: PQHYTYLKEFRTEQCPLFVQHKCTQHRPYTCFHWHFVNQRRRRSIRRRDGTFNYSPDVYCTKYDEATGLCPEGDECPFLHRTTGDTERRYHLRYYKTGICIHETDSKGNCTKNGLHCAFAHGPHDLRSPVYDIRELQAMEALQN
Put plainly: nsRBNS (natural sequence RNA bind-n-seq); RBNS binding buffer (assumed for nsRBNS): 25 mM Tris pH 7.5, 150 mM KCl, 3 mM MgCl2, 0.01% Triton X-100, 500 ug/ml BSA, 20 U/ml SUPERase-In, 4 C; UNK is unkempt and MSI1 is Musashi-1; names of the RNAs are library labels; protein concentration not given here; high values mean tight binding.
The molecule B1 had a binding signal of 0.904 enrichment R.
Under B2 stands 0.742 enrichment R; under B3, 1.4 enrichment R.
Under B4 stands 0.493 enrichment R; under B5, 0.61 enrichment R.
The figure for B6 is 1.01 enrichment R.

The values above are taken from PMC12136788.
